These results are taken from the supplement of paper PMC9446081.

Each structure is given as a SMILES string. About 220 (0.56%) of roughly 39,000 compounds showed activity. This is one part of the list.
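Note: static incubation at 37 °C against the wild-type strain, values averaged over two biological replicates.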

For this assay, the system named is Escherichia coli K-12 BW25113. The assay is described as follows: relative growth (OD600 normalised to plate interquartile mean) (fraction); higher = less growth inhibition, active = 0.2 or less. To be noted: 50 µM; LB; incubation time: overnight (16-24 h).
On to `COCC#Cc1ccc2c(c1)O[C@@H](CN(C)Cc1ccccc1F)[C@@H](C)CN([C@H](C)CO)S2(=O)=O`, for which the relative growth is inactive: 1.03.

For the molecule `C[C@@H]1CN([C@@H](C)CO)C(=O)CCCn2cc(nn2)CO[C@H]1CN(C)C(=O)Nc1ccccc1C(F)(F)F`, the relative growth is inactive: 1.02. The same measure for `C[C@H](CO)N1C[C@H](C)[C@@H](CN(C)Cc2ccc(F)cc2)Oc2cc(C#CC3CC3)ccc2S1(=O)=O`: inactive: 0.938; for `C[C@@H]1CN([C@H](C)CO)C(=O)c2cc(NC(=O)CCCN(C)C)ccc2O[C@H]1CN(C)S(=O)(=O)c1cn(C)cn1`: inactive: 1.01; for `COc1ccc2c3c([nH]c2c1)[C@H](CO)N(C[C@]13CCN(CC1)C(=O)c1ccccc1F)C(=O)Nc1ccccc1F`: inactive: 1.01. The same measure for `COCC(=O)Nc1ccc2c(c1)OC[C@@H](C)N(Cc1ccccc1OC)C[C@H](C)[C@@H](OC)CN(C)C2=O`: inactive: 0.985; for `COc1ccccc1C(=O)Nc1ccc2c(c1)C(=O)N(C)[C@@H]1CC[C@@H](CC(=O)NCCc3ccncc3)O[C@H]1CO2`: inactive: 1.01. For `C[C@@H]1CN([C@@H](C)CO)C(=O)Cc2cc(NC(=O)C3CC3)ccc2O[C@H]1CN(C)Cc1ccc(C(=O)O)cc1` the value was inactive: 1; for `C[C@H](CO)N1C[C@H](C)[C@@H](CN(C)S(C)(=O)=O)Oc2c(NC(=O)NC3CCCCC3)cccc2C1=O`, inactive: 0.993; for `C[C@@H]1CCCCO[C@@H](CN(C)S(=O)(=O)c2ccc(Cl)cc2)[C@H](C)CN([C@@H](C)CO)C(=O)c2cc(NC(=O)Nc3cccc4ccccc34)ccc2O1`, inactive: 1.05.

On to `CC(=O)O[C@H]1C[C@@H](OC(C)=O)C(C)(C)[C@@H]2C[C@@H](OC(C)=O)[C@@]3(C)C4=CC(=O)O[C@@H](c5ccoc5)[C@]4(C)CC[C@@H]3[C@@]12C`, for which the relative growth is inactive: 1.02.

Take `Cc1cc(C(=O)Nc2cccc3c2O[C@H](CN(C)C(=O)NC2CCCCC2)[C@@H](C)CN([C@@H](C)CO)C3=O)n(C)n1`: the relative growth was inactive: 1.01.

On to `CNC[C@@H](O)CS(=O)(=O)c1ccccc1`, for which the relative growth is inactive: 1.01.

In the case of `O=C1N[C@@H]2[C@@H]1[C@H]1C=C[C@H]2C1`, the relative growth was inactive: 0.974.

With `COCC(=O)N(C)C[C@@H]1Oc2cc(C#Cc3ccccc3)ccc2S(=O)(=O)N([C@@H](C)CO)C[C@H]1C`, the relative growth was inactive: 0.903.

With `COc1ccc(S(=O)(=O)N(C)C[C@H]2Oc3ccc(NS(=O)(=O)c4cn(C)cn4)cc3CC(=O)N([C@H](C)CO)C[C@@H]2C)cc1`, the relative growth is inactive: 0.996. For `C[C@@H]1CN([C@H](C)CO)C(=O)Cc2cc(NC(=O)Nc3ccc(C(F)(F)F)cc3)ccc2O[C@H]1CN(C)C(=O)Nc1ccccc1` the value was inactive: 1.06; for `C[C@H](CO)N1C[C@H](C)[C@@H](CN(C)Cc2ccc(Cl)c(Cl)c2)Oc2ccc(NS(=O)(=O)c3ccccc3)cc2C1=O`, inactive: 1.01; for `Cc1cc(C(=O)Nc2cccc3c2O[C@H](CN(C)S(=O)(=O)c2cccs2)[C@H](C)CN([C@@H](C)CO)C3=O)n(C)n1`, inactive: 1.01.

In the case of `Cc1noc(C)c1NC(=O)Nc1cccc2c1O[C@H](CN(C)C(=O)Nc1cccc3ccccc13)[C@H](C)CN([C@@H](C)CO)C2=O`, the relative growth was inactive: 0.948. Regarding `C[C@H]1CN([C@@H](C)CO)C(=O)c2cc(-c3cccc(C#N)c3)cnc2O[C@@H]1CN(C)C(=O)c1cnccn1`, the relative growth is inactive: 1.02. Regarding `Cc1cc([N+](=O)[O-])nn1CC(=O)N1CCOCC1`, the relative growth was inactive: 1.01. Take `C[C@H](CO)N1C[C@H](C)[C@@H](CN(C)C(=O)C2CC2)Oc2ncc(-c3ccc(C(=O)N(C)C)cc3)cc2C1=O`: the relative growth is inactive: 0.995.

As to `C[C@@H]1CN([C@H](C)CO)C(=O)c2cc(NC(=O)Nc3ccc4c(c3)OCO4)ccc2O[C@@H]1CN(C)Cc1ccc(Cl)c(Cl)c1`, the relative growth was inactive: 0.996. The same measure for `C[C@@H]1CCCCO[C@H](CN(C)C(=O)Nc2ccc(C(F)(F)F)cc2)[C@@H](C)CN([C@@H](C)CO)C(=O)c2cc(NS(=O)(=O)c3ccccc3)ccc2O1`: inactive: 0.982; for `C[C@H]1CN([C@@H](C)CO)C(=O)c2cccc(NC(=O)Nc3ccccc3)c2O[C@H]1CN(C)Cc1ccc(Oc2ccccc2)cc1`: inactive: 1.04.

For the molecule `C[C@]12C=CC(=O)N[C@@H]1CC[C@@H]1[C@@H]2CC[C@]2(C)[C@@H](C(=O)Nc3cc(C(F)(F)F)ccc3C(F)(F)F)CC[C@@H]12`, the relative growth was inactive: 0.931. The same measure for `CCOCc1c[nH]c(=O)[nH]c1=O`: inactive: 1.04; for `COc1cccc(NC(=O)N(C)C[C@H]2Oc3ncc(C#Cc4cccnc4)cc3C(=O)N([C@H](C)CO)C[C@@H]2C)c1`: inactive: 0.984; for `Cc1noc(C)c1NC(=O)Nc1ccc2c(c1)CC(=O)N([C@@H](C)CO)C[C@@H](C)[C@H](CN(C)Cc1ccc(C(=O)Nc3ccccc3N)cc1)O2`: inactive: 0.994. For `C[C@@H]1CCCCO[C@H](CN(C)C(=O)Nc2ccc(C(F)(F)F)cc2)[C@@H](C)CN([C@H](C)CO)C(=O)c2cc(NS(=O)(=O)c3ccccc3)ccc2O1` the value was inactive: 1.01; for `CCCN(C)C[C@@H]1OCCCC[C@H](C)Oc2ccc(NC(=O)Nc3ccc(C(F)(F)F)cc3)cc2C(=O)N([C@@H](C)CO)C[C@@H]1C`, inactive: 1.01. The same measure for `C[C@@H]1CCCCO[C@@H](CN(C)C(=O)CCCN(C)C)[C@H](C)CN([C@@H](C)CO)C(=O)c2cc(NC(=O)Nc3ccc(F)cc3)ccc2O1`: inactive: 1.01; for `Cn1cc(S(=O)(=O)N2CCN(c3ccccc3F)CC2)c(=O)n(C)c1=O`: inactive: 1.05; for `CCOC(=O)CCn1cc(F)c(=O)[nH]c1=O`: inactive: 0.986. On to `O=C(N[C@@H](c1ccc(-c2ccccc2)cc1)c1cnccn1)C1CCN(Cc2cccc(C(F)(F)F)c2)CC1`, for which the relative growth was inactive: 1.01.

Take `COc1ccc(S(=O)(=O)Nc2ccc3c(c2)C(=O)N([C@@H](C)CO)C[C@H](C)[C@@H](CN(C)C(=O)Nc2ccc(F)cc2)OCCCC[C@H](C)O3)cc1`: the relative growth was inactive: 1.02. Consider `O=C1C[C@H]2[C@@H](CCN2c2cnccn2)N1`, for which the relative growth was inactive: 1.02.

Consider `COc1ccc(S(=O)(=O)N(C)C[C@H]2Oc3ccc(NS(=O)(=O)c4ccc(F)cc4)cc3C(=O)N([C@H](C)CO)C[C@H]2C)cc1`, for which the relative growth is inactive: 1.02. The same measure for `Cc1noc(C)c1S(=O)(=O)N(C)C[C@H]1Oc2ccc(NC(=O)Nc3ccc4c(c3)OCO4)cc2CC(=O)N([C@@H](C)CO)C[C@H]1C`: inactive: 0.994. On to `CN(C)C(=O)C[C@H]1CC[C@@H]2[C@H](COC[C@@H](O)CN2S(=O)(=O)c2ccccc2)O1`, for which the relative growth was inactive: 0.998. For `C[C@@H]1CN([C@@H](C)CO)C(=O)c2cc(C#CC3(O)CCCC3)cnc2O[C@H]1CN(C)C(=O)Nc1ccc2c(c1)OCO2` the value was inactive: 0.988; for `Cc1ccc(S(=O)(=O)N2CCO[C@@H]2CNC(=O)C(=O)NCc2ccccn2)cc1`, inactive: 1; for `O=C(C[C@@H]1CC[C@@H]2[C@H](COC[C@@H](O)CN2S(=O)(=O)c2ccccc2)O1)N1CCOCC1`, inactive: 1.

As for `CC(C)CC#Cc1cnc2c(c1)C(=O)N([C@H](C)CO)C[C@H](C)[C@@H](CN(C)S(=O)(=O)c1cccs1)O2`, the relative growth was inactive: 1.01. For `C[C@H](CO)N1C[C@H](C)[C@H](CN(C)Cc2ccncc2)Oc2cc(C#CC(C)(C)O)ccc2S1(=O)=O` the value was inactive: 1. For `COc1ccc(NC(=O)N(C)C[C@H]2OCCCC[C@@H](C)Oc3ccc(NS(=O)(=O)c4ccccc4)cc3C(=O)N([C@@H](C)CO)C[C@@H]2C)cc1` the value was inactive: 0.976. The same measure for `C[C@@H]1CN([C@@H](C)CO)C(=O)c2cc(NC(=O)Nc3ccccc3)ccc2O[C@H]1CN(C)C(=O)Nc1cccc2ccccc12`: inactive: 1. As for `C[C@H]1CN([C@@H](C)CO)C(=O)c2cccc(NS(=O)(=O)c3ccc(F)cc3)c2O[C@H]1CN(C)S(C)(=O)=O`, the relative growth is inactive: 0.831.

On to `COc1ccc(NC(=O)Nc2ccc3c(c2)C(=O)N([C@@H](C)CO)C[C@H](C)[C@@H](CN(C)C(=O)Nc2c(C)noc2C)OCCCC[C@H](C)O3)cc1`, for which the relative growth was inactive: 1. As for `CC(C)=CCC/C(C)=C/C=O`, the relative growth is inactive: 0.996. For the molecule `CNC[C@@H]1Oc2ccc(NS(=O)(=O)c3cn(C)cn3)cc2CC(=O)N([C@H](C)CO)C[C@@H]1C`, the relative growth was inactive: 1.01. For `COc1ccc(S(=O)(=O)Nc2ccc3c(c2)CC(=O)N([C@H](C)CO)C[C@H](C)[C@@H](CN(C)Cc2ccc(-c4ccccc4)cc2)O3)cc1` the value was inactive: 0.997. For `C[C@@H]1CCCCO[C@H](CN(C)CC2CCCCC2)[C@H](C)CN([C@H](C)CO)C(=O)c2cc(NS(=O)(=O)c3ccccc3)ccc2O1` the value was inactive: 1; for `C=CC(=O)NS(=O)(=O)c1ccccc1`, inactive: 0.949; for `COc1cccc(NC(=O)N(C)C[C@@H]2Oc3ncc(C#Cc4cccnc4)cc3C(=O)N([C@H](C)CO)C[C@H]2C)c1`, inactive: 0.993. The same measure for `C[C@@H]1CN([C@@H](C)CO)C(=O)c2cc(NC(=O)C3CCCCC3)ccc2O[C@H]1CN(C)S(=O)(=O)c1cn(C)cn1`: inactive: 0.993; for `CS(=O)(=O)N1C[C@H](NC(=O)c2cnccn2)[C@H]2OCCC[C@H]21`: inactive: 1.02. As to `COc1ccc(S(=O)(=O)N(C)C[C@H]2OCCCC[C@H](C)Oc3ccc(NC(=O)Nc4ccc(F)cc4)cc3C(=O)N([C@@H](C)CO)C[C@H]2C)cc1`, the relative growth was inactive: 1. The same measure for `O=C(O)CCCCCCCCCCCCC1C=CCC1` (stereo unspecified): inactive: 0.834; for `[O-]/[N+](=N\O[C@@H]1O[C@H](CO)[C@@H](O)[C@H](O)[C@H]1O)N1CCCC1`: inactive: 0.999.
